Data reported in the supplement of paper PMC10126150.
Sequences with one replicate were seen in a single cluster, so their values are uncertain.

System: ATP
Experiment: switch fluorescence ratio, 500 uM ATP over buffer (Cy3 cluster intensity, sum of 5 cycles each) (fold (ratio)); higher = stronger signal-on switching upon ATP binding; sequences stand for … in TCGTCGGCAGCGTCAGATGTGTATAAGAGACAGTTTTTTTTTTTTTTTTTTTTTTTTT…TC
Conditions: aptamer strand: ATP DNA aptamer (quencher-CACCTGGGGGAGTATTGCGGAGGAAGG + anchor), 100 nM annealed; ATP concentration: 500 uM; one replicate
Procedure, shortened: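 Imaging in selection buffer was followed by imaging after 15 min with 500 uM ATP at 22 °C, for Cy3-labelled switching-strand clusters annealed to 100 nM quencher-labelled ATP aptamer on a modified Illumina MiSeq flow-cell. Five of these buffer/ATP cycles ran, separated by NaOH stripping and re-annealing. The fluorescence ratio per cluster is summed target-cycle over summed buffer-cycle Cy3 intensity, averaged per switch-domain sequence; clusters outside 100-1000 RFU were removed.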
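Also: ATP exposure 15 min at 22 °C before imaging.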

Sequence | switch fluorescence ratio
ATTATGAAGG | 0.98
AGATCTGAAG | 0.995
TCCCAAGACC | 1.24
TAACTGTGCT | 0.969
ATGATGATAA | 0.961
TTTCGTTTAT | 0.977
CACTTTAGCC | 1.02
CACTGGTTAG | 1.03
ATATCTGGCC | 1.04
TATCAGAT | 0.979
TCACTTTGCA | 1.08
TTCTCTGGCG | 0.998
GGGCTGCTTT | 1.01
GAATGTAATA | 1.06
AGATGGAGTG | 0.95
TGAATTTTGG | 1.03
AAAGTTAGGT | 0.968
CTCTAGGGTT | 0.999
TCAACATTT | 0.977
GCCGAATGTT | 0.99
TCAACGAGCT | 1.01
CCATTCGGC | 0.979
ATAGATCAAG | 1.02
ATCGTTAAGG | 0.967
GGATTGCAGA | 0.977
CAAAACATGG | 1.04

Sequence | switch fluorescence ratio
AGGCTCGAAC | 0.984
ATTTTTGGAT | 0.979
GGCACTGCGG | 1.01
CGTAGACCTC | 1.07
GACTACAAGG | 1.01
TGGTTGATGG | 1.01
GCTTTTGAAC | 0.998
AATCGGAACG | 1.01
CCACTGCGAG | 1.69
GCTGGAAGAA | 0.996
TGAACTCATG | 0.98
ACCGTCTCGA | 1.02
CGAGGACGGT | 0.96
CGTCCTGATA | 1.04
CGAATTAGAT | 1.01
AATTCGTCC | 1.07
GCGTAGTCCG | 0.988
CAATAGGGGT | 1.01
CGTTTCCCGT | 0.977
TTGTATTGCG | 0.955
TAAAGATATT | 0.984
TCGTCGAGCT | 1.02
TCGTTCGCCC | 1.14
GACGTATC | 1.05
TTGTGGAACC | 1.02
CGGCGCGGTA | 1.14

Sequence | switch fluorescence ratio
TCTACTTCTC | 1.1
GACGTAGTTG | 1.02
TATTCACACT | 1.03
CCCCTTCACC | 1.08
GGAAAGCGAG | 0.958
CACCCAATAT | 3.49
GACAAATTT | 1.06
GAGATTGGG | 0.996
CGTCAGCTCT | 1.03
ATGTGGATAT | 1.04
GGGTGCGGGT | 0.968
GCTCTATTAA | 1.05
TAACTTATTA | 0.975
CACAATGGTT | 1.05
GGACAACAAT | 0.999
TTATGGCTAG | 1.04
CGTCACCGGT | 1.05
AGTCATCCTT | 1.07
CGGCGATAAG | 1.03
TCACGGAGTT | 0.987
TCCCTTTTGA | 1
ACTCAGGCGT | 1.09
GCTGCCCATT | 0.978
GTCGATCCGT | 0.986
AGCACCCCTT | 1.14
CAGAAGCCC | 1.02

Sequence | switch fluorescence ratio
GGCCGGCTTT | 1.02
CGTTTCGGAT | 1
ATTTGCCTCG | 1.05
GCGAAGAAGA | 0.993
TTTCAGGGA | 0.969
CTCGTGCATA | 2.22
CATATTAGGG | 1.01
TGTACTCAGG | 1.24
TCATGTAGTC | 0.983
TCGAGGTATT | 0.987
TTCGAGTCGC | 1.05
CGGCTGAGTA | 1.02
ACCCGGCTCA | 0.985
GAAAGACCCG | 1.11
GACCTCTGTT | 0.986
TTGAGTCTAG | 1.02
TTCCTATTTG | 1.03
CTATGAAAG | 0.962
CTTTCATGAC | 1.02
CCGCCGGCGG | 1.1
GGGCTGCAAA | 0.972
TATTTGATGA | 1
GTCGGCCAAC | 1.03
TCTTTTTTAA | 1.06
ACATCTGTTC | 1.03
GGGAGCCGAC | 1.03

Sequence | switch fluorescence ratio
CGCGTGCTG | 0.992
TATTGGCATG | 1.02
AGATGACTA | 1.02
AGGGTATCGA | 0.988
GAGATCGTT | 0.939
AGTAATGCCA | 0.945
CAAGATGCGG | 1.01
AAATCATTG | 1.01
CGTACCGTTC | 1.02
AACGTGAATG | 1.04
ATCTATTGTT | 0.998
TATAATGAAC | 0.981
TCTAGCGAGG | 1
ATGTGCTAGT | 1
TATTACCAGG | 1.4
GCTTATGAAA | 0.984
AATTGGCGC | 0.974
GCCCCAATCG | 1.03
CTATCCGG | 1.02
ATCGTATTTA | 1.02
TGGGTGGCCA | 1.03
AACGGGTTCA | 1.03
TAGGAACGGG | 0.992
ATAAAGACTA | 1.02
ACCTTTTAGC | 1.04
ACTGCCAATT | 1.13

Sequence | switch fluorescence ratio
TCATTCTCAT | 1
CCACAGAGC | 1.02
TATCTTGAGT | 0.953
GGCGCGTCGA | 0.977
TTCGTGGGCA | 1.11
GTGTGCCGTT | 1.06
CCGATTTTGG | 1
CGTGTGGGTG | 1.04
TTCATAAATG | 0.98
TGGATTCCGG | 1.03
TGTTGGCTCA | 0.985
TAGAATTCG | 0.967
TGCAGGCCGA | 0.957
TTTAATACAG | 0.966
TAGACGGCC | 1
GAATTCACGT | 1.03
CGGCGATTAT | 1.04
CATATTATAC | 1.1
GAATATTAAA | 0.976
CGCAGCGTAA | 2.01
ATTAATTATA | 1.01
CTCAGCAT | 2.71
AGCGGTGGGC | 0.995
TCACGGTGAT | 1.05
AAGCTAATGG | 1.01
CCAGTCAAAA | 1.03

Sequence | switch fluorescence ratio
ATAGCTGGGC | 1.01
TTGGCGCAGA | 1.02
ATGAGGATTT | 0.992
CGAAACTTGC | 1.11
CATACGTCTA | 1.32
CGCTGAACAG | 1.05
TCGTTGTAG | 0.987
CAGACTGGTC | 0.875
CTTTAACTT | 1.04
TCTATGGGG | 0.989
CTTGGCATCC | 1.12
CCATTAGCCA | 1.08
TGTCTTGCGG | 0.996
CGCCGCGGGC | 2.75
GTCACGCGG | 1
ACCTAACAGT | 1.17
TTAACGACAG | 1.04
CGATGCGTTT | 1.04
CAGTTAAGGT | 1
CTTCCTGGCA | 1.98
CCTTGTGACC | 1.05
ATAACGATTT | 1
AGGTGCATTA | 1.04
CTTGTGCTTT | 0.99
CTATTTAATC | 1.04
TTTCAATCAC | 1.28

Sequence | switch fluorescence ratio
GGGGTTAAGC | 0.975
AGGTATGCTT | 0.956
TCCTTCCAT | 1.01
GTTGAGATAA | 1.01
TCGGTTCGCG | 1.04
GATGGGGA | 1.01
AAGAAGCTAT | 0.984
TCTACAACGT | 1.02
CAGTTTCCGG | 1.02
CAGCCAGCGG | 1.04
CTAGCTGTT | 0.982
CTGAACGGG | 1.03
CAGCCGCTAG | 2.87
GTTACCCTCT | 1.02
AAAGTTCACC | 1.01
CGTTTTATTT | 0.992
TCCAAGAGCA | 1.13
ACGGGAGTAA | 0.858
CTGGATTGAC | 1.05
